This note sets out measurements from ChEMBL document CHEMBL4888484, “Replenishing the malaria drug discovery pipeline: Screening and hit evaluation of the MMV Hit Generation Library 1 (HGL1) against asexual blood stage Plasmodium falciparum ,using a nano luciferase reporter read-out” (2022).

In general, % Inhibition refers to the relative decrease from the control value, in per cent.

In all, about 150,000 compounds went through this assay and about 540 (0.36%) showed an effect of 50% or more. The list shows a part of the results.

The test concerns Plasmodium falciparum. Put plainly: Primary screen in NF54 nanoGlo assay, in single point, at 2uM, 72h; a lower Z score goes with more inhibition. Format: functional, Erythrocyte. The following applies: timepoint 72 hour.
As to `CCCc1[nH]ccc1C(=O)NCCN1CCOC[C@@H]1C`, the “% Inhibition” value is listed as -4% and the Z score worked out at 0.71.
Turning to `CCN1CCN(C(=O)c2csc(NC(=O)c3ccc(Cl)cc3Cl)n2)CC1`, the “% Inhibition” value is -14% and the Z score amounted to 1.29.
As to `c1ccc(CC2=NCCc3ccccc32)cc1`, the “% Inhibition” value is listed as 40% and the Z score is -4.68.
Regarding `Cc1ccc(NC(=O)c2cccn3c(Cc4ccccc4)nnc23)cc1C`, the “% Inhibition” value is given as -8% and the Z score came to 1.35.
With `CNC(=O)C1CCCC1NC(=O)c1ccc2[nH]ccc2n1` (configuration not stated), the “% Inhibition” value is -11% and the Z score worked out at 2.1.
As for `CN(C)C(=O)CNC(=NCc1ccccc1)NCc1ccccc1`, the “% Inhibition” value is 1% and the Z score is reported as -0.15.
For `N#Cc1nc(-c2cccnc2)oc1NC[C@@H](c1ccco1)N1CCCC1` the same measures were -9% and 1.25.
For the molecule `Cc1cccc([C@H]2C[C@@H](c3ccc(F)cc3)Nc3nc(N)nn32)c1`, the “% Inhibition” value is -6% and the Z score turned out to be 1.22.
Regarding `C[C@H](NC(=O)CS(=O)(=O)Cc1cscn1)c1ccccc1`, the “% Inhibition” value is given as 0% and the Z score came out at 0.02.
For `CCc1sc([C@H](C)NC(=O)COCc2nncn2C)cc1C`, the “% Inhibition” value was -7% and the Z score turned out to be 1.33.
On the same counts, the results for `O=c1n(CC2(CO)COC2)ccn1-c1ccccc1Cl` are -6% and 0.64.
Take `O=C(NC[C@H]1CCN(Cc2ccco2)C1)c1cccc2c1OCC2`: the “% Inhibition” value is listed as -6% and the Z score is 1.29.
Turning to `CC(C)CNC(=O)N1CCC[C@H]1c1nnc(C(=O)Nc2ccc(F)cc2)s1`, the “% Inhibition” value is -6% and the Z score was 0.64.
On the same counts, the results for `COc1ccc(NC(=O)C2[C@@H]3C=C[C@]4(O3)C(C(=O)NC3CCCC(C)C3C)N(Cc3ccc(Cl)cc3)C(=O)[C@H]24)cc1` (some centres not stated) are -2% and 0.2.
`CCS(=O)(=O)N1CCCN(c2ccc(=O)n(-c3ccc(C)cc3)n2)CC1`: the “% Inhibition” value is on record as 4% and the Z score was -0.49.
Take `CN1CCN(C(=O)N2CCC3(CC2)C[C@H](c2ccccc2)C(=O)N3C)CC1`: the “% Inhibition” value was -7% and the Z score is on record as 0.58.
Consider `CC(=O)c1ccc(CNC(=O)COC2CCC(C)CC2)nc1C` (configuration not stated), for which the “% Inhibition” value is listed as -4% and the Z score amounted to 0.65.
With `COC(=O)c1ccccc1S(=O)(=O)N1CCC(c2cc(-c3cccc(C)c3)n[nH]2)CC1`, the “% Inhibition” value was -6% and the Z score is recorded as 1.19.
Regarding `CCn1ncn2cc(S(=O)(=O)Nc3ccc(F)cc3)cc2c1=O`, the “% Inhibition” value was found to be 4% and the Z score was -0.57.
For `CC(=O)N(c1nc(CN[C@H](C)CC2CCCCC2)cs1)C1CC1`, the “% Inhibition” value was found to be 9% and the Z score was -1.05.
As to `CS(=O)(=O)NCC(=O)N[C@@H]1[C@H]2CCO[C@H]2[C@H]1Cc1ccccc1`, the “% Inhibition” value is on record as -17% and the Z score is on record as 1.75.
On the same counts, the results for `O=C(CCC(=O)NCc1ccco1)NCc1ccc2c(c1)OCO2` are -5% and 0.74.
With `CNC(=O)C(C)(C)CNC(=O)C[C@H](O)c1cc(Cl)cc(Cl)c1`, the “% Inhibition” value is -14% and the Z score was determined as 2.05.
With `CC(C)(C)CC(=O)N[C@H]1CO[C@@H](CN2CCC(F)(F)CC2)[C@@H]1O`, the “% Inhibition” value is given as -8% and the Z score amounted to 1.22.
`O=C(CC1=CCCCC1)Nc1cnns1`: the “% Inhibition” value is -2% and the Z score was 0.24.
Take `Cc1cc([C@@H]2CCCN2c2ccc3nnc(C(F)(F)F)n3n2)no1`: the “% Inhibition” value is reported as -1% and the Z score was determined as 0.12.
For `CC1CCN(CC(=O)N2c3ccccc3NC(=O)C[C@@H]2C)CC1` the same measures were -6% and 0.52.
For `O=C(C[C@H]1CCCO1)N1CCC(S(=O)(=O)N2CCCCC2)CC1` the same measures were -17% and 1.81.
On the same counts, the results for `Cc1cccc(CN(C)c2nnc([C@@H]3CCCCO3)n2C)c1` are -14% and 1.96.
With `CCN1CCN(C(=O)NCc2ccco2)CC1`, the “% Inhibition” value is reported as -8% and the Z score is reported as 1.49.
For `CC(C)(C)CCC(=O)NCc1cnc2cnccn12` the same measures were 3% and -0.66.
For `O=C(c1ccc(C(F)(F)F)cc1)N1CC[C@@H]2NCCC[C@@H]2C1`, the “% Inhibition” value was found to be 23% and the Z score is -3.16.
As to `CC(N[C@@H]1CCCN(S(=O)(=O)N(C)C)C1)c1ccc(C(F)F)nc1` (some centres not stated), the “% Inhibition” value is listed as -7% and the Z score worked out at 1.33.
For `CC(C)[C@H](CCO)Nc1ncc(Br)cn1` the same measures were -6% and 0.51.
For the molecule `CCCc1cnc(NC(=O)[C@@H]2CCCCN2)s1`, the “% Inhibition” value was -3% and the Z score came out at 0.27.
Regarding `CCCCCc1ccc(C(=O)Nc2ccc3[nH]cc(CCN(CCC)CC4CC4)c3c2)cc1`, the “% Inhibition” value is given as 21% and the Z score was -2.09.
As to `COC[C@H](NC(=O)c1c(F)c(F)cc(F)c1F)C1CC1`, the “% Inhibition” value was 2% and the Z score is recorded as -0.36.
Consider `CCNC(=O)[C@@H]1C[C@@H](N)CN1C(=O)c1cccc(-c2ccc(C)cc2)c1`, for which the “% Inhibition” value was 2% and the Z score was -0.43.
For `c1csc(-c2ocnc2-c2nc([C@H]3CCOC3)no2)c1` the same measures were -13% and 1.36.
In the case of `O=C(COc1ccc(Cl)cc1)Nc1ccccc1-c1nc2ccccc2[nH]c1=O`, the “% Inhibition” value is -5% and the Z score stood at 0.82.
On to `Cc1noc2c1N=C(c1ccc(F)cc1)C[C@@H](c1ccccc1)C2`, for which the “% Inhibition” value is reported as -6% and the Z score was found to be 0.72.
As to `Cc1nc2ccc(C(=O)N3CCCN(C(C)C)CC3)cc2n1C`, the “% Inhibition” value is -3% and the Z score turned out to be 0.37.
For `CN(CCN(C)c1ccc(C#N)nc1)C(=O)OC(C)(C)C` the same measures were 6% and -0.99.
Consider `OC12CCCCC1CN(Cc1cccc(C(F)(F)F)c1)CC2` (configuration not stated), for which the “% Inhibition” value is reported as -12% and the Z score is listed as 1.11.
For `COCCN1C[C@H](CNC(=O)NCc2ccccc2)OCC1=O` the same measures were -14% and 1.82.
For `NC(=O)c1cc(Br)ccc1F` the same measures were 1% and -0.12.
In the case of `Clc1cncnc1NC[C@@H]1CCCC[C@@H]1N1CCOCC1`, the “% Inhibition” value was -5% and the Z score is 0.75.
For `CCOc1cc(N2CCOCC2)c(OCC)cc1NC(=O)c1cccc(S(=O)(=O)N2CCCc3ccccc32)c1`, the “% Inhibition” value was -5% and the Z score was determined as 0.89.
On to `Cn1c(-c2ccccc2)nnc1N1CCCOCC1`, for which the “% Inhibition” value was -48% and the Z score is 5.64.
Regarding `Cc1nc(CC2CC2)oc1C(=O)N[C@@H](C)C1CCOCC1`, the “% Inhibition” value is listed as -18% and the Z score was found to be 2.26.
As for `O=C(COc1ccccc1F)Nc1nnc(-c2cc(Cl)sc2Cl)o1`, the “% Inhibition” value came to 0% and the Z score amounted to 0.
Take `CCOCCC(=O)N1CCC[C@H](C(=O)OCC)C1`: the “% Inhibition” value is listed as -10% and the Z score came to 1.91.
For `O=C(c1ccccc1)N1C[C@H]2CCCC(=O)N(Cc3cccc(F)c3)[C@H]2C1` the same measures were 2% and -0.33.
For `CCN(Cc1ncc(C)o1)c1ccc(O)cc1` the same measures were -34% and 3.98.
For `CCCc1ccc(C(=O)[C@H](C#N)C(=O)c2ccc(OC)nc2)cc1`, the “% Inhibition” value was -21% and the Z score is on record as 1.94.
Turning to `CC12CN(Cc3ccccc3)CC1(C)CN(c1cnc(C#N)cn1)C2` (configuration not stated), the “% Inhibition” value is -3% and the Z score is recorded as 0.63.
As to `CC(C)(C)[C@H]1CCCN(C(=O)CCS(C)(=O)=O)CC1`, the “% Inhibition” value came to 5% and the Z score is listed as -0.95.
In the case of `Cc1ccc(N(C)Cc2nc(C3CC3)no2)c(C)c1`, the “% Inhibition” value is given as 6% and the Z score is -0.75.
As to `Cc1[nH]c2c(F)cc(F)cc2c1CCNC(=O)CN1CC[C@H](N(C)C)C1`, the “% Inhibition” value was -14% and the Z score was 1.96.
For `O=C(Nc1ccc2c(c1)OCCO2)N1CCC(O)CC1` the same measures were 31% and -0.65.
Regarding `O=C(Cc1n[nH]c(=O)c2ccccc12)NCc1ccc(Cn2cccn2)cc1`, the “% Inhibition” value was -4% and the Z score is 0.56.
For `COC(C(=O)N(C)C1C2CCOC2C1(C)C)c1ccccc1` (configuration not stated) the same measures were -1% and 0.27.
As for `O=C(C1CCOCC1)N1CCCN(C2CCC2)CC1`, the “% Inhibition” value was -6% and the Z score was 1.01.
`CC1(C)CN(S(=O)(=O)C2CCC2)[C@H]1C1CC1`: the “% Inhibition” value is -2% and the Z score is on record as 0.27.
Turning to `CCOc1cc(CN(C)C[C@H]2COCCO2)c(Cl)cc1OC`, the “% Inhibition” value is 5% and the Z score is listed as -0.94.
For `CN1CCC(Cc2nc(-c3ccon3)n(-c3ccc(F)cc3F)n2)CC1` the same measures were 15% and -2.52.
For `C[C@H](NC(=O)CCc1ccc2c(c1)CCO2)c1nnc2ccccn12` the same measures were 8% and -1.
Regarding `C#CCN(C(=O)c1ccc2c(c1)CCC(=O)N2)c1nccs1`, the “% Inhibition” value stood at 2% and the Z score is recorded as -0.32.
Consider `CCCc1cc(CNS(=O)(=O)N2CCC[C@@H]2COC)on1`, for which the “% Inhibition” value is recorded as 3% and the Z score was -0.5.
On to `Cc1cnc(C2CC2)n1[C@H]1CCN(C(=O)c2nccc3ccccc23)C1`, for which the “% Inhibition” value was -15% and the Z score is recorded as 1.87.
Consider `O=C(c1ccc2n[nH]c(=O)n2c1)N1CC[C@H]1C1CCCC1`, for which the “% Inhibition” value was -10% and the Z score amounted to 1.61.
For `COc1cccc(C(=O)N2C[C@@H]3CC[C@H]2CN(Cc2c(C)noc2C)C3)c1`, the “% Inhibition” value turned out to be 4% and the Z score was -0.53.
As to `Cc1cc(N(C)C)nc(NC(=O)NCC2CCOCC2)n1`, the “% Inhibition” value is -1% and the Z score came out at 0.12.
For `C#CCN1CCCCC1C(=O)NCC(C(C)C)N1CCN(C)CC1` (configuration not stated) the same measures were -4% and 0.49.
For `O=C(NC1CC2CC2C1)c1ccnc2nn[nH]c12` (configuration not stated), the “% Inhibition” value was 2% and the Z score is recorded as -0.32.
In the case of `C[C@@H](CNCc1ccnn1C)c1cccc(Cl)c1`, the “% Inhibition” value was -3% and the Z score worked out at 0.59.
As for `COc1cccc(CCC(=O)N2CC(C)[S+]([O-])C(C)C2)c1F` (configuration not stated), the “% Inhibition” value is -11% and the Z score came out at 1.17.
For `CCOc1cc2c(cc1CN1C[C@H](O)C[C@H]1C(=O)O)CCC2`, the “% Inhibition” value was -5% and the Z score is on record as 0.65.
Take `CC[C@H](C)NC(N)=NCc1ccc(Cn2ccnc2)cc1`: the “% Inhibition” value was -3% and the Z score was found to be 0.26.
Take `CC(=O)NCC(=O)NC1CCC(C)CC1` (configuration not stated): the “% Inhibition” value is recorded as 3% and the Z score was -0.38.
For `O=C1CN(C[C@H](O)C(F)(F)F)CCN1CC1CCCC1`, the “% Inhibition” value was -1% and the Z score stood at 0.14.
`O=C(NCC(F)(F)C1(O)CCCCC1)c1ccncc1`: the “% Inhibition” value is reported as -4% and the Z score worked out at 0.36.
On the same counts, the results for `Cc1cncc(Br)c1NC(=O)COC[C@H]1CCCO1` are -9% and 1.22.
On the same counts, the results for `COC1CCC2OCCN(CC(O)c3cccc(Cl)c3)C2C1` (configuration not stated) are -4% and 0.4.
Take `CC(C)c1nn(-c2ccccc2)c(N(C)C)c1CN(C[C@H]1CCCO1)C(=O)c1ccc(Cl)cc1`: the “% Inhibition” value is reported as -7% and the Z score was 1.18.
Turning to `Cc1ccccc1-n1ncc2c1CC(C)(C)C[C@@H]2NS(=O)(=O)C1CC1`, the “% Inhibition” value is -14% and the Z score worked out at 1.74.
